Data published in paper PMC7819943, “Rice protein-binding microarrays: a tool to detect cis-acting elements near promoter regions in rice”.
The list shows a part of the results.

The sequences below were run against T1, OsWOX13 (Oryza sativa, UniProt Q5QMM3 1-267) (assay: protein-binding microarray (RPBM); PBS, 2% BSA, 51.3 ng/ul salmon testes DNA, 50 uM zinc acetate, 200 nM TF, 25 C, 1 h; high values mean tight binding). Settings: protein: recombinant; tags: N-terminal polyhistidine and DsRed monomer fusion (pET32a); label: CyDye5-dUTP incorporated in the synthesized complementary strand; 3' TTTTT single-stranded linker to array surface; dsDNA, one strand shown.
T1 sequence: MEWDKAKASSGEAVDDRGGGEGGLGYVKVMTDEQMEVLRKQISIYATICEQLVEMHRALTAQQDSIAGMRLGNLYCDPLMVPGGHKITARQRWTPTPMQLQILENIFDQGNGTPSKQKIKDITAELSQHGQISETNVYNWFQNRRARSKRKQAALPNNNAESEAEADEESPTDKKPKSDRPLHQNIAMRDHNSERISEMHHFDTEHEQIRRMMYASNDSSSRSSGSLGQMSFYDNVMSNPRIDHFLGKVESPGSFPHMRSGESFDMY
Procedure, shortened: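 The binding signal for each feature is its fluorescence intensity in arbitrary units. An Axon 4000B scanner was used to read a custom Agilent array that had been made double-stranded with Cy5-dUTP primer extension, blocked with 2% BSA, incubated at 25 °C for 1 h with 200 nM protein in PBS, 2% BSA, salmon testes DNA and 50 µM zinc acetate, and washed. The protein was an N-terminal polyhistidine–DsRed transcription factor fusion from E. coli BL21-CodonPlus, purified on Ni–NTA.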

Sequence | binding signal
GGTCAAATTAAGTTGAATACCGGTAAACATTGGTGATACACGGAGTCACCTAGTGCAG | 4480 fluorescence intensity (a.u.)
ACCCTATGACTAATGTGATTTGGTCCCAAAGTTTGCCCTCCGGAGTCACCTAGTGCAG | 12800 fluorescence intensity (a.u.)
CTTTTAATTACTCCGATTTCGTAGCGCATATCGACTCTCCCGGAGTCACCTAGTGCAG | 7460 fluorescence intensity (a.u.)
AGCCAGTTAATTATGACATCACAACCCATCTAAACACATACGGAGTCACCTAGTGCAG | 18900 fluorescence intensity (a.u.)
TTCTAATTAATCACGCGTTAATGGACCGCTCCGTTTTCCGCGGAGTCACCTAGTGCAG | 42300 fluorescence intensity (a.u.)
AGCCTCCTAATTGGGGTTTGTTGACGAAAAGCGCATCCTTCGGAGTCACCTAGTGCAG | 10600 fluorescence intensity (a.u.)
TCCTATATGATTATTAACACAACCCAAATATCCAATCCATCGGAGTCACCTAGTGCAG | 11000 fluorescence intensity (a.u.)
TATAAATTGATGAGTGACTACCAGGATATACATTCAACAACGGAGTCACCTAGTGCAG | 39300 fluorescence intensity (a.u.)
GTTTTATGATAAGTACTGATTAATTCTCGCGTTTCATTATCGGAGTCACCTAGTGCAG | 8030 fluorescence intensity (a.u.)
GAACTTAATTATCTACCACTTGCTGGGTAGCTAGTGAGCGCGGAGTCACCTAGTGCAG | 29600 fluorescence intensity (a.u.)
GGGTGGGGTGGGCCTGGGCTGATGCATGTTTGGCGCTTAGCGGAGTCACCTAGTGCAG | 4520 fluorescence intensity (a.u.)
AACACGTATTAATTAATTAGACACTGGAAATCGTTCTGCACGGAGTCACCTAGTGCAG | 38000 fluorescence intensity (a.u.)
TAATTCTAATTGTTATAAAATGTTACTCCCTCCGTATTTTCGGAGTCACCTAGTGCAG | 6460 fluorescence intensity (a.u.)
ATATATATGATTGGTACATACAGCCATACACAGGACACCCCGGAGTCACCTAGTGCAG | 25800 fluorescence intensity (a.u.)
CATAAATCTGATTGGAGTGTGGAAAATCGTGCATTTAAATCGGAGTCACCTAGTGCAG | 18800 fluorescence intensity (a.u.)
TTCAGAAATGCTGGAAGATGATTGAGGAAATCAGGAAATTCGGAGTCACCTAGTGCAG | 5150 fluorescence intensity (a.u.)
GGAGATTACAGGCCTGAATACATGCACAATGATTTTCTCTCGGAGTCACCTAGTGCAG | 3730 fluorescence intensity (a.u.)
TTTTGTGTAATTGGCTGTGGACACTCGAGACAATATCTTACGGAGTCACCTAGTGCAG | 13300 fluorescence intensity (a.u.)
AATTATTTGTTCTGTATTGTTTTGTTTTACTATATCTTCTCGGAGTCACCTAGTGCAG | 3310 fluorescence intensity (a.u.)
ACTAATTTAGTATTATAAATATTACTATATTTGTCTATAACGGAGTCACCTAGTGCAG | 16400 fluorescence intensity (a.u.)
CAATGAACTAATATAACAGGTCAATTAATCCGCCATAGATCGGAGTCACCTAGTGCAG | 3700 fluorescence intensity (a.u.)

Sequence | binding signal
AAGATTAGGTTGACAGTAAAAGAATGTGGTTCTGACAGGCCGGAGTCACCTAGTGCAG | 6350 fluorescence intensity (a.u.)
CTAGTCGTTAATTAGCAATTTCATGACAATCCTGGACGGACGGAGTCACCTAGTGCAG | 39700 fluorescence intensity (a.u.)
GCATAATTGGAAGTCTAAACACCCATAAATTTCTGCCTCCCGGAGTCACCTAGTGCAG | 45200 fluorescence intensity (a.u.)
TGGGAATAATTAGTTAATCCTTTCCAGCAACTTTAAATCACGGAGTCACCTAGTGCAG | 5320 fluorescence intensity (a.u.)
GCTAATTGCCAAAGCAGCCACATGGATTGACATAGCTTCTCGGAGTCACCTAGTGCAG | 36800 fluorescence intensity (a.u.)
ACCTAACCCCACCCAATCACCCCAACCGAACCCCGCACGGCGGAGTCACCTAGTGCAG | 3460 fluorescence intensity (a.u.)
GATAATGGCGCATCAGACATGGAAGAATATGTAGCGTTTGCGGAGTCACCTAGTGCAG | 3260 fluorescence intensity (a.u.)
ATCCAATCATACTCCAAGATCTGAAGAGAAGGAGGGATTGCGGAGTCACCTAGTGCAG | 11900 fluorescence intensity (a.u.)
TGTTAAATTATATCTAAGGAAACCGGTTTTGATTTCCTTCCGGAGTCACCTAGTGCAG | 11100 fluorescence intensity (a.u.)
CTAAACGCATATAATAAATTCATCAATCTCTCGAATGTGCCGGAGTCACCTAGTGCAG | 3750 fluorescence intensity (a.u.)
GTGTAATTACATGTAGTGTAACTATATTATACATTTGAAACGGAGTCACCTAGTGCAG | 6600 fluorescence intensity (a.u.)
TCAGGCTAACCATTCAATCATGACGTAAGAATATAACAAACGGAGTCACCTAGTGCAG | 6850 fluorescence intensity (a.u.)
TCGTCAATCTTAAAATATATCGGTCCAATCTTTGAAAGATCGGAGTCACCTAGTGCAG | 4030 fluorescence intensity (a.u.)
AGTTACTTTGTCCAATTAATTTGCTTGTCTCGACGAGAGACGGAGTCACCTAGTGCAG | 10600 fluorescence intensity (a.u.)
AATAATTGACGATGACTATACACGCACAATGCATCCCGGCCGGAGTCACCTAGTGCAG | 46600 fluorescence intensity (a.u.)
GTGCTTAAATGATTAATCTATGGTCCAAATTATATTTCTCCGGAGTCACCTAGTGCAG | 23100 fluorescence intensity (a.u.)
ATGTATAATCATGTATGTGGATAATTGTAGCCAACTCGTACGGAGTCACCTAGTGCAG | 8280 fluorescence intensity (a.u.)
GTTGACAGTCAGTGGATTCAGAATTTCAGATTGACCTAAACGGAGTCACCTAGTGCAG | 7030 fluorescence intensity (a.u.)
CATAGGTGATCAAATCAATCAGTTGGGTCTGTTGGGTGGGCGGAGTCACCTAGTGCAG | 24100 fluorescence intensity (a.u.)
CCAAAATTTGATAGAATCTATTCCGAAGCGTCCAATGTTTCGGAGTCACCTAGTGCAG | 33400 fluorescence intensity (a.u.)
GTGATTATGATGAATAAGAGCAATGACCGGCTTCGGCCAACGGAGTCACCTAGTGCAG | 7120 fluorescence intensity (a.u.)

Sequence | binding signal
ATCCCCAAAACTGATTAGAACACGTCGTGTATCGATGGGGCGGAGTCACCTAGTGCAG | 10500 fluorescence intensity (a.u.)
TTTGACAATGGCAAAATGTCAATTTTCTCCCATCCCGCGACGGAGTCACCTAGTGCAG | 8540 fluorescence intensity (a.u.)
ATTAAAATTATGAAATTTTAATGATTCATTAATCTCAAGACGGAGTCACCTAGTGCAG | 14100 fluorescence intensity (a.u.)
TCCCCACTGAACTTAACAGACTGACAGTCACATTTACTGTCGGAGTCACCTAGTGCAG | 5760 fluorescence intensity (a.u.)
TATTTCAATCACAGGGAAGTAGACCATTTCAGGAACGCAACGGAGTCACCTAGTGCAG | 22900 fluorescence intensity (a.u.)
AGTTTCAGATAGGAAAATTGACGCATTCGATGACAGTGTTCGGAGTCACCTAGTGCAG | 4020 fluorescence intensity (a.u.)
TTGATGACTGGCTCATAATGTTCTGTAATCTATTCTATACCGGAGTCACCTAGTGCAG | 19500 fluorescence intensity (a.u.)
ATCCCACCTACTATCATTGTTAATTTGCAAATTATCCCTTCGGAGTCACCTAGTGCAG | 5320 fluorescence intensity (a.u.)
ATCATAATGATAGAAAGATGCCGAAGGGACATAGGCCCATCGGAGTCACCTAGTGCAG | 7430 fluorescence intensity (a.u.)
ATGATTTAAAATGACATCAAAGTGAAAGTTAAGGGATCTCCGGAGTCACCTAGTGCAG | 7770 fluorescence intensity (a.u.)
TCTTGCATTGACAGCCGCATCCACCCTATATATGAATCAACGGAGTCACCTAGTGCAG | 3660 fluorescence intensity (a.u.)
CGAGTTGTTTAGTGCAATTAACACCGCGATTGCAATCTGCCGGAGTCACCTAGTGCAG | 5230 fluorescence intensity (a.u.)
CATCAATGATATTAGAATTATGATATATGCGATATCACATCGGAGTCACCTAGTGCAG | 4640 fluorescence intensity (a.u.)
GGTTAGTTTTGATTAGGTGTCATTTAGTTTTAAATCGCCTCGGAGTCACCTAGTGCAG | 8350 fluorescence intensity (a.u.)
GCTGATTAGACTATGTCAATGATCCATGTCATCGAAATCCCGGAGTCACCTAGTGCAG | 23100 fluorescence intensity (a.u.)
CTTACTCCTAATTACTAAAGTGGTAGTGCCCGCAATTAGTCGGAGTCACCTAGTGCAG | 4100 fluorescence intensity (a.u.)
TGTTAAATTATAAATGTGGTTTTACAGTTTAATGTTTCTCCGGAGTCACCTAGTGCAG | 15600 fluorescence intensity (a.u.)
CCAAACAGTCCAGATTGCCACTCAAATTTTGAGAGTCCAACGGAGTCACCTAGTGCAG | 10100 fluorescence intensity (a.u.)
GCACATAATTGGACGAAAACCAAAGTTGTTCGACTGGGTACGGAGTCACCTAGTGCAG | 30500 fluorescence intensity (a.u.)
CAGATTGACCAAGTGGCGCCGCAGTAGCCGCGTCGGCCTCCGGAGTCACCTAGTGCAG | 6790 fluorescence intensity (a.u.)
CCAAAATTGAAAGTTTGGTTGAAATTGGAACAATGTGACGCGGAGTCACCTAGTGCAG | 26200 fluorescence intensity (a.u.)

Sequence | binding signal
ATAAATTGGCGCGATTGGTGGGAATGGGAGGGCGTACCGCCGGAGTCACCTAGTGCAG | 31800 fluorescence intensity (a.u.)
TTCGTGTAATTGAAGAACTTAATATTTTAAGATAAGAAAACGGAGTCACCTAGTGCAG | 16000 fluorescence intensity (a.u.)
ATCTGAACAGCCCCTAAGTCTAGCAATAGCATTGAACCAACGGAGTCACCTAGTGCAG | 4070 fluorescence intensity (a.u.)
TGGAGTGGTGATTTGCTCTCTCTTGAGTGTTGATTAGTGGCGGAGTCACCTAGTGCAG | 9250 fluorescence intensity (a.u.)
TATATATATATATATATATATACACGATAACTATTTTAGTCGGAGTCACCTAGTGCAG | 5720 fluorescence intensity (a.u.)
TTTTGATGTGATCTAAACACACCCTAAACAACACCAGGATCGGAGTCACCTAGTGCAG | 5880 fluorescence intensity (a.u.)
CCCCAATCAAATTCTTGAAGAAATCAACAAAATTTCCTGACGGAGTCACCTAGTGCAG | 7860 fluorescence intensity (a.u.)
TTGATTTTAAATTTGATTTTAAGATATTTTCAATGTATTTCGGAGTCACCTAGTGCAG | 16800 fluorescence intensity (a.u.)
TTTGGAAGTAATGAAGATTGACAATACTAATGGAAGAATACGGAGTCACCTAGTGCAG | 4160 fluorescence intensity (a.u.)
TGTAATTTATTTTATTATTAAACTATTAAATGTGTATCCGCGGAGTCACCTAGTGCAG | 21900 fluorescence intensity (a.u.)
AGGCTAATTGGCATCCGCATCACGGCAATACACATAGCGTCGGAGTCACCTAGTGCAG | 24000 fluorescence intensity (a.u.)
AAAGACAATCATCTCGAACTCACCCTCCCACGCGTCCACCCGGAGTCACCTAGTGCAG | 3300 fluorescence intensity (a.u.)
AATATTTTATAATTATTTAGATGACATGTAGGAACGAGGACGGAGTCACCTAGTGCAG | 9730 fluorescence intensity (a.u.)
TTAGCCGACTAATTACGAAATGACACGTGTCAAGTTACAACGGAGTCACCTAGTGCAG | 6110 fluorescence intensity (a.u.)
AAATAAAATAAATTGGACACAGAAACTCACGACTGTATTTCGGAGTCACCTAGTGCAG | 23600 fluorescence intensity (a.u.)
TTGAATCAAATTTGAAATTTGTTTTGGTGGAGTGTTGCATCGGAGTCACCTAGTGCAG | 10900 fluorescence intensity (a.u.)
AGCAATAGTGGGACGGTAGATTGGCTGTCATCGTCACTACCGGAGTCACCTAGTGCAG | 3400 fluorescence intensity (a.u.)
ATTACTTTTGAAATTAAGTAAATTACTTTAAATGTTTGAACGGAGTCACCTAGTGCAG | 5190 fluorescence intensity (a.u.)
AGAAATTTCATTATTTTAAGAAAGTTTGATTATAGAGTTGCGGAGTCACCTAGTGCAG | 3150 fluorescence intensity (a.u.)
ATGAATTGACTATAGATAAATTGGAGCCAATAGTGGGCTACGGAGTCACCTAGTGCAG | 32500 fluorescence intensity (a.u.)
TTTCTCATGATAATCATTTGCAATCACCAAGGAGTGAAATCGGAGTCACCTAGTGCAG | 14900 fluorescence intensity (a.u.)
